# Publication PMC4336329 (PLoS ONE, 2015)
# Screen size: about 310,000 compounds; about 2,200 (0.71%) showed an effect of 50% or more. Effects have a minus sign here. Some of the results follow. Where a SMILES comes first, the peptide text is derived from it. The star is where a group is joined. Cbz = O=C(OCc1ccccc1)*
# Biological target: human ether-à-go-go-related gene (hERG) potassium channel (human, UniProt Q12809)
# Assay: primary screen, population patch clamp on CHO cells stably expressing hERG
# Chain of human ether-à-go-go-related gene (hERG) potassium channel (Q12809 whole entry, looked up): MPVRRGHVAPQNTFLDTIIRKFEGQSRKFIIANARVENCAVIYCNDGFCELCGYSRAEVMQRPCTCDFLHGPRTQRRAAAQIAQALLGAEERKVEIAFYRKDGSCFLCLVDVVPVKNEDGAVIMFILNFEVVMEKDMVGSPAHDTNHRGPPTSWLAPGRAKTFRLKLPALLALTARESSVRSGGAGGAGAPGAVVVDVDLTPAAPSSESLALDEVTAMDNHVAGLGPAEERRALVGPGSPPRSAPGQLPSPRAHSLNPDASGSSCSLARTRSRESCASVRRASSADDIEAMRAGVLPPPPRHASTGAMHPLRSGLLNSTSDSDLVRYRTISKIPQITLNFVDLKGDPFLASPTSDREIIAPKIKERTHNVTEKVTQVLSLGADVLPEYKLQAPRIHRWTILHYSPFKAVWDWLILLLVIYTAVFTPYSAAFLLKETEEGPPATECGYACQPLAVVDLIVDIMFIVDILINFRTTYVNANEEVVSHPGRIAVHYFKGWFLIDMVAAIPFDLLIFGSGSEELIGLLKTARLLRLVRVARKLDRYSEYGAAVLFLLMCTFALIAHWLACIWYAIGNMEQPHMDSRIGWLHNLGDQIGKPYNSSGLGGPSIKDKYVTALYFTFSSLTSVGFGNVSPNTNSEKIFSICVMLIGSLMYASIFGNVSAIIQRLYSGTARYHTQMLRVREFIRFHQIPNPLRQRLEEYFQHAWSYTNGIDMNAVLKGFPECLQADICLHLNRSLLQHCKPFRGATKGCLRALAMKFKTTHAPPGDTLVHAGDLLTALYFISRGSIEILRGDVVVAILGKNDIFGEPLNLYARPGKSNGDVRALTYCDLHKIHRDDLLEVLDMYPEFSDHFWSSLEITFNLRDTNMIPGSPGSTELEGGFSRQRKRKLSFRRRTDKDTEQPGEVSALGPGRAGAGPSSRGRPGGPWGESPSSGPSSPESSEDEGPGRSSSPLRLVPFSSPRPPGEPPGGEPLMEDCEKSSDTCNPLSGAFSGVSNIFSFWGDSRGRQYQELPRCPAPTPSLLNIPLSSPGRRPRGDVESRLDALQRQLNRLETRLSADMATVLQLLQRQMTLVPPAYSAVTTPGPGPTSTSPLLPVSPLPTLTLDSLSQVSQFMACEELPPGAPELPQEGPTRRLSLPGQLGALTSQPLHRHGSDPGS
row,SMILES,"hERG current change (%, negative = inhibition) at 1uM [%]"
1,C=C(C)c1cccc(C(C)(C)NC(=O)N2CCN(c3ccccc3OC)CC2)c1,10.4
2,COc1cc2c(cc1OC)C(c1cccs1)CC(=O)N2 (stereo not shown),9.91
3,O=C(Nc1ccccc1)C1CCCN1C(=O)NCc1ccccc1 (stereo not shown),12.1
4,COc1ccc(Cn2cccc(NC(=O)Nc3ccc(F)cc3)c2=O)cc1,23.4
5,O=C(NCC(O)COc1ccc([N+](=O)[O-])cc1)c1ccccc1 (stereo not shown),-17.5
6,O=C1CCc2cc(NS(=O)(=O)c3ccccc3)cc3c2N1CCC3,20.9
7,Cc1ccc(CN(C)C(=O)C2CCC(=O)N(C3CCCCCC3)C2)cc1 (stereo not shown),10.9
8,CC1=N/C(=C/c2cccnc2)C(=O)O1,14.6
9,Cn1cncc1COC(=O)c1ccc(Cl)cc1,14.4
10,COc1ccc(S(=O)(=O)N/N=C(/C)c2ccncc2)cc1OC,9.83
11,C/C(=N\NC(=O)c1cc2c(s1)CCC(C)C2)c1ccncc1 (stereo not shown),5.22
12,CCCCNC(=O)Nc1nnc(SCC(=O)OCC)s1,-45.1
13,CCCCC(=O)NC(=S)NNS(=O)(=O)c1ccccc1,-12.4
14,O=C(Oc1coc(CSc2nnc(NC(=O)C3CC3)s2)cc1=O)c1ccccc1,8.36
15,COc1cc(NC(=O)Nc2ccc(Cl)c(Cl)c2)c(C(=O)O)cc1OC,13.2
16,Nc1ccc2nc(-c3ccc(-c4nc5ccc(N)cc5[nH]4)cc3)[nH]c2c1,10.1
17,O=C1C=Cc2ccccc2C1=O,14.7
18,CCCCC(CCC(=O)Nc1cccc([N+](=O)[O-])c1)C(=O)O (stereo not shown),11.2
19,O=C(c1ccccc1[N+](=O)[O-])N1CCN(Cc2ccc3c(c2)OCO3)CC1,8.15
20,O=C(COc1ccc2c3c(c(=O)oc2c1)CCC3)N1CCCC1,13.9
21,CCCCNC(=S)N1CCn2cccc2C1c1cccnc1 (stereo not shown),0.781
22,Cc1oc(-c2ccc(-c3ccccc3)cc2)nc1CN1CCN(CC(=O)N(C)C)CC1,-0.22
23,COCCn1c(=O)[nH]c2cc(C(=O)N3CCN(c4ccccc4F)CC3)ccc2c1=O,9.04
24,Cl.Clc1cccc(-c2ccc(CNCCCN3CCOCC3)o2)c1,-24.5
25,NNC(=O)Cn1nnc(-c2ccc(C(F)(F)F)cc2)n1,13.6
26,Cc1cccc(C)c1OCc1nnc(SCC(=O)NCCc2ccccc2)o1,-4.8
27,COc1ccc(C(CC(=O)O)NS(=O)(=O)c2ccc(C)cc2)cc1OC (stereo not shown),10.4
28,CCN(C(=O)CSc1nnc(CNc2cccc(OC)c2)n1C1CCCCC1)C1CCS(=O)(=O)C1 (stereo not shown),14.7

row,SMILES,"hERG current change (%, negative = inhibition) at 1uM [%]"
1,NCCCC[C@@H]1NC(=O)c2cc([N+](=O)[O-])cc(F)c2NCCCC[C@@H](C(N)=O)NC(=O)CNC1=O,18.6
2,COc1cccc(CNC(=O)CN2C(=O)NC(Cc3ccccc3)(c3ccccc3)C2=O)c1 (stereo not shown),6.05
3,CS(=O)(=O)c1ccc(Cl)c(NC(=O)C2CCN(S(=O)(=O)c3cccs3)CC2)c1,8.41
4,CC(C)c1ccc(NC(=O)COC(=O)CCC(=O)c2cccs2)cc1,13.6
5,O=C(O)c1cc(/C=N\O)ccc1OCc1ccccc1,14.8
6,O=C(Nc1ncccc1O)c1ccc(S(=O)(=O)Nc2ccccc2)cc1,12.8
7,Cc1cc(C)cc(NC(=O)c2cccc(NC(=O)C3C4CC5OC(=O)C3C5C4)c2)c1 (stereo not shown),-8.25
8,COc1ccccc1C(=O)NCC(=O)OCC(=O)Nc1nnc(-c2ccccc2)o1,9.54
9,CCN(CC(=O)Nc1ccc(NC(C)=O)cc1)C(=O)C1(c2ccccc2)CC1,1.51
10,Cn1c(=O)n(C/C=C/c2ccccc2)c(=O)c2c1nc1n2CCCN1c1ccc(F)cc1,10.8
11,COc1ccc(OC)c(-c2cc(C(=O)Nc3cc(C)on3)no2)c1,19.9
12,O=S(=O)(c1ccc(O)cc1)c1ccc(O)cc1,13.2
13,Cc1ccc(-c2c[n+](CC(=O)Nc3nc(-c4ccc(F)cc4)cs3)c3n2CCC3)cc1.[Cl-],-28.7
14,CN1C(=O)C(=O)/C(=C(/O)c2ccccc2)C1c1ccc([N+](=O)[O-])cc1 (stereo not shown),22.3
15,O=c1c2[nH]cnc2n(-c2ccccc2)c(=O)n1Cc1ccccc1,4.96
16,CCc1cccc(NC(=O)C2CCCN2S(=O)(=O)c2cccc3cccnc23)c1 (stereo not shown),0.771
17,CCOC(=O)c1nn(-c2ccccc2)c2nc(-c3ccc(OC)cc3)c(C#N)c(=O)n12,13.9
18,COc1cccc(C2CC(C(F)(F)F)n3ncc(C(=O)NCC4CCCO4)c3N2)c1 (stereo not shown),6.7
19,Cc1ccc(S(=O)(=O)N2CCC(C(=O)N/N=C/c3ccncc3)CC2)cc1,1.33
20,COC(=O)C1=C(c2ccc(F)cc2F)C[C@@H]2CC[C@H]1N2C(=O)NC(C)C,10.5
21,CCOC(=O)c1c(NC(=O)CN2CCCCC2)sc2c1CCC(C=O)=C2Cl,16.2
22,COc1cccc(OC)c1C(=O)Nc1sc2c(c1C(N)=O)CCCC2,7.47
23,Cc1ccc2ncnc(Nc3cccc(C(=O)O)c3)c2c1.Cl,10.2
24,CCOC(=O)C1=NN(c2ccc([N+](=O)[O-])cc2)CC1C(=O)OC (stereo not shown),2.54
25,O=C(CN1C(=O)C2C3C=CC(C3)C2C1=O)Nc1ccc(S(=O)(=O)Nc2nccs2)cc1 (stereo not shown),16.6
26,O=C(Cn1nc(-c2ccccc2)ccc1=O)NCC1CCCO1 (stereo not shown),-10.2
27,COC(=O)CCC(NC(=O)OCc1ccccc1)C(=O)NC(CC(C)C)C(=O)OC (stereo not shown) (Cbz-Glu(OMe)-Leu-OMe; configuration not given here),4.47
